Measured values as given in article PMC5388433.
Residue numbers refer to the chain shown, from its start. Results are given in words; binding and its absence hold for the method and conditions named. Some entries that bind do so weakly or less than the wild type. For part of these data: Tags and fused reporters may be left off the sequences shown.

Amino acid sequences for entries named in this document (tags omitted).
UniProt P45973: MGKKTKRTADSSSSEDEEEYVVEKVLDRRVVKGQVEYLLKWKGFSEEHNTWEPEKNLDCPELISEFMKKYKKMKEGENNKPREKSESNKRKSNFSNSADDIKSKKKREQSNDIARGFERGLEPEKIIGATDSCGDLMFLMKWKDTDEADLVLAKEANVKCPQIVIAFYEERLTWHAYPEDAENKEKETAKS

Key:
[1] = biological target: T1, KDM2A_(543-811) V801A/L803A (human) (UniProt Q9Y2K7); assay: pull-down; nucleosomes (2.5 μg octamer, biotinylated 601-DNA) immobilised on streptavidin beads, incubated with 2.5 μg WT or mutant HP1α and/or 2.5 μg KDM2A_(543-811) (WT or V801A/L803A) in 1 ml binding buffer; immunoblot; both purified
T1 sequence: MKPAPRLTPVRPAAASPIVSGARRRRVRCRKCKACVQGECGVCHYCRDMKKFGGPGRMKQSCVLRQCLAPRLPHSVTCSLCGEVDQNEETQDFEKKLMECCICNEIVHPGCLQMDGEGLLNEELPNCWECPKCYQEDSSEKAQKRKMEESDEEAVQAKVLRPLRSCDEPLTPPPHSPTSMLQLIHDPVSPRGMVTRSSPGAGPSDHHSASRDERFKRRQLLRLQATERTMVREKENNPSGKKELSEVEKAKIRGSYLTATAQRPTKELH

[2] = biological target: T2, purified full length FLAG-GFP-tagged KDM2A S603D (human) (UniProt Q9Y2K7); assay: pull-down; nucleosomes (2.5 μg octamer, unmethylated biotinylated 601-DNA) immobilised on streptavidin beads, incubated with 2 μg purified full length FLAG-GFP-KDM2A (WT or mutant) and 2 μg HP1α in 1 ml binding buffer (20 mM HEPES pH7.9, 150 mM NaCl, 0.1% NP40); immunoblot; both purified
T2 sequence: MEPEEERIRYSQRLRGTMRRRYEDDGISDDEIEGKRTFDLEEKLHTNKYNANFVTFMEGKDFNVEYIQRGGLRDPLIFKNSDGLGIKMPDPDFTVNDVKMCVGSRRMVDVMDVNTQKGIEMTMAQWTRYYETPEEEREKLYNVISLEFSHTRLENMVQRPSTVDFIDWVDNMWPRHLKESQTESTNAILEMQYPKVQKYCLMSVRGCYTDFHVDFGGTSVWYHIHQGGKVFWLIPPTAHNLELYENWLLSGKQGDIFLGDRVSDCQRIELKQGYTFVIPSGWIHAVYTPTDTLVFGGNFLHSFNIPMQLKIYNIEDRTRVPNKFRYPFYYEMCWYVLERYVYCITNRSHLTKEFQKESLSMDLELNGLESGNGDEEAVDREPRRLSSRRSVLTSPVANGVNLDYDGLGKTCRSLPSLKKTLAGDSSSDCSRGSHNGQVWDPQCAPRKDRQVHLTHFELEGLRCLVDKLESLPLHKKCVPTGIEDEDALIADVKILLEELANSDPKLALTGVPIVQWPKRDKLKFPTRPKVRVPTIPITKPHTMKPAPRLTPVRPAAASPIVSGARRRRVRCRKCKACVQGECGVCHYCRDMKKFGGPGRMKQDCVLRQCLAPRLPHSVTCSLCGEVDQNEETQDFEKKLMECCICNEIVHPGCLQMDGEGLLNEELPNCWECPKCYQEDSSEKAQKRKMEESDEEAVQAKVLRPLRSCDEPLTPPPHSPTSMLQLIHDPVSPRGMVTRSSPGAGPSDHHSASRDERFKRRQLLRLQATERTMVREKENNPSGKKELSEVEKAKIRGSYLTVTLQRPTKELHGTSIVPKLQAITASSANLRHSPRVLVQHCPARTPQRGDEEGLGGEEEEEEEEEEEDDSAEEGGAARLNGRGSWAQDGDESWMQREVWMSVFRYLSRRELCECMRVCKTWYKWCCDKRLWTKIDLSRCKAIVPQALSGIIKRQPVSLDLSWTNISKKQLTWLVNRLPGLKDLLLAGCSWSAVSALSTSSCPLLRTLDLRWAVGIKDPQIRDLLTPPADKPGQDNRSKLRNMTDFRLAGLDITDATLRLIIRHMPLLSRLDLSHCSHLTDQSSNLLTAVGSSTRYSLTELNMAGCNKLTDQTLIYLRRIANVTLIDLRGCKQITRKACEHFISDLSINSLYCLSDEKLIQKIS

[3] = biological target: T3, purified full length FLAG-GFP-tagged KDM2A V801A/L803A (human) (UniProt Q9Y2K7); assay: as above
T3 sequence: T2 sequence with D603S, V801A, L803A

binding [1]: no binding
binding [2]: binds
binding [3]: no binding
Substance: recombinant purified HP1α (WT) (from UniProt P45973 1-191)
